# Measured values published in PubChem BioAssay AID624202 (National Center for Advancing Translational Sciences (NCATS), 2012).
# Out of some 380,000 compounds screened, about 4,000 (1.1%) were called active. This list was built around the results that the source calls inconclusive (neither active nor inactive); the mix of calls is not that of the screen. Calls follow the shape of the dose curve; as a rule, active = well fitted activation curve with a large enough effect; inconclusive = small, poorly fitted or top-dose-only effect; inactive = no such curve, though single readings can be large or run the other way. A potency beside an inconclusive call is a rough fit, not a confirmed value.
# Test: qHTS Assay to Identify Small Molecule Activators of BRCA1 Expression; also: nearly all actives have a fitted effect of over 80% in size
# Conditions: MCF7-BRCA1-FFLuc reporter, luminescence, 48 h; activation: at 46.1 µM (top of the series), scaled: vehicle 0%, 10 µM genistein 100% unless noted
# Summary of the method: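 Cells: MCF7-BRCA1-FFLuc, 2000/well. Exposure: 48 h, 37 °C, 5% CO2. Read: luminescence, 15 min post-substrate. Controls: genistein 10 microM (maximal activation), DMSO (neutral).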
# Tags tell the direction and shape of the fitted curve.
Structure (SMILES),Potency,activation
CC1(C)C=Cc2cc3ccc(=O)oc3cc2O1,"inconclusive: 35.5 µM [activator, single point]",–
C=CCn1c(N)c(C(=O)NCCC2=CCCCC2)sc1=S,active: 12.6 µM,–
O=C(Nc1ccc(F)cc1F)c1cc2nc3c(c(C(F)(F)F)n2n1)CCCC3,"inconclusive: 2 µM [activator, full curve, poor fit]",–
O=C(O)c1ccc(-c2noc(-c3ccc(F)cc3)n2)cc1,–,inconclusive: 87.9% [activator]
O=C(NC1CC1)C1=C[C@@H](c2csc3ccccc23)C[C@@H](OCCCCO)O1,inactive,–
CN(Cc1cccnc1)Cc1cn[nH]c1-c1ccc(-c2ccccc2)cc1,inactive,–
Nc1nc(N2CCN(C/C=C/c3ccccc3)CC2)nc2ccccc12,inactive,–
Cc1cc(NC(=O)CCCC(=O)O)nc(C)n1,inactive,–
O=[N+]([O-])c1ccc(N/N=C/c2cccnc2)cc1,"inconclusive: 7.94 µM [activator, partial curve, poor fit]",–
CSCCC(NC(=O)c1ccc(Cl)cc1)C(=O)OCC(=O)Nc1cc(Cl)ccc1C#N (configuration not stated),inactive,–
CCN(CC)S(=O)(=O)c1ccc2c(c1)nc(SCC(=O)NCC1CCCO1)n2CC (configuration not stated),inactive,–
O=C(NC(=S)Nc1ccc2c(c1)OCCO2)c1ccc(F)cc1Cl,"inconclusive: 10 µM [activator, partial curve, poor fit]",–
COc1ccc2c(C)cc(SCC(=O)NC3CCCC3)nc2c1,inactive,–
O=C(CSc1nnc(-c2ccccc2F)o1)N1CCNC1=O,"inconclusive: 2.51 µM [activator, full curve, poor fit]",–
COc1ccc(-c2coc3cc(O)ccc3c2=O)cc1O,active: 12.6 µM,–
CC(=O)Nc1cccc(/C(C)=N/NC(=O)c2cccs2)c1,"inconclusive: 25.1 µM [activator, single point]",–
COc1cc(/C=C2\Oc3cc(O)ccc3C2=O)ccc1O,"inconclusive: 12.6 µM [activator, partial curve, poor fit]",–
Cc1ccc(/C=C/C(=O)NCCc2ccccc2)o1,"inconclusive: 15.8 µM [activator, partial curve, poor fit]",–
CCc1nnc(NC(=O)c2ccc(NC(=O)C(C)C)cc2)s1,active: 11.2 µM,–
CCCC(=O)NC1CCc2cc(OC)c(OC)c(OC)c2-c2ccc(OC)c(=O)cc21 (configuration not stated),–,inconclusive: -80% [activator]
COc1ccc(NC(=O)Nc2nc3ccccc3s2)cc1,"inconclusive: 0.631 µM [activator, full curve, poor fit]",–
O=C(CNS(=O)(=O)c1cccs1)N1CCc2ccccc2C1,"inconclusive: 11.2 µM [activator, partial curve, poor fit]",–
O=C(Nc1ccc(Br)cc1)c1cnc[nH]1,active: 12.6 µM,–
NCc1nc2cccnc2n1Cc1ccccc1Cl,inactive,–
COn1c(-c2ccccc2)nc2ccc(Cl)cc21,"inconclusive: 22.4 µM [activator, single point]",–
CCN1/C(=C/C=C/C=C/c2sc3ccccc3[n+]2CC)Sc2ccccc21,inactive,–

Structure (SMILES),Potency,activation
CC(/C=C/c1ccc(O)cc1)=N/O,active: 12.6 µM,–
Cn1c(/C=C/c2ccc(Br)cc2)nc2ccccc2c1=O,"inconclusive: 2.51 µM [activator, full curve, poor fit]",–
O=C(Nc1cccc(O)c1)c1cc(-c2ccccc2Cl)on1,inactive,–
CCOC(=O)c1nc2sc3c(c2c(=O)[nH]1)CCC(C)C3 (configuration not stated),inactive,–
CCC(=O)Nc1cc(-c2cccc(C)c2)nn1-c1ccccc1,inactive,–
CC(C)CC(=O)Nc1ccc(C(=O)Nc2cccc(O)c2)cc1,"inconclusive: 11.2 µM [activator, partial curve, poor fit]",–
Cc1sc(NC(=O)C2CCCCC2C(=O)O)c(C(N)=O)c1-c1ccc(C(C)(C)C)cc1 (configuration not stated),inactive,–
CCCOC(=O)Nc1ccc(N2CCCCC2)cc1,"inconclusive: 0.631 µM [activator, full curve, poor fit]",–
COc1ccc(C(=O)NCCSc2ccccc2C)cc1,"inconclusive: 2 µM [activator, full curve, poor fit]",–
CC(C)c1nnc(NC(=O)COc2ccc3c(c2)OCO3)s1,active: 11.2 µM,–
COc1ccc(C2=CC3=C(Br)C(=O)C(C)(OC(=O)c4ccco4)C(=O)C3=CO2)cc1 (configuration not stated),inactive,–
Cc1ccc(C2/C(=C(\O)c3cnn(-c4ccccc4)c3C)C(=O)C(=O)N2CCN(C)C)o1 (configuration not stated),"inconclusive: 11.2 µM [activator, partial curve, poor fit]",–
Cn1c2ccccc2c2cc(/C=N/NC(=O)c3ccc(N)cc3)ccc21,inactive,–
Cc1ccc(-c2nc3ccccn3c2Nc2ccccc2C)o1,inactive,–
Cc1ccc(OCC(=O)Nc2ccc(C)c(F)c2)c([N+](=O)[O-])n1,active: 6.31 µM,–
O=C(CC1Sc2ncnn2C1=O)Nc1ccc(Br)cc1 (configuration not stated),inactive,–
O=c1oc(/C=C/c2ccccc2)nc2ccccc12,–,inconclusive: -30.6% [activator]
Fc1ccccc1/C=N/Nc1nc2ccccc2o1,"inconclusive: 1.58 µM [activator, partial curve, poor fit]",–
O=C(COC(=O)COc1ccccc1[N+](=O)[O-])Nc1ccc2c(c1)OCO2,inactive,–
CC(=O)Nc1ccc2c(c1Br)Cc1ccccc1-2,active: 3.16 µM,–
COC(=O)c1c(N2C(=O)CC(Sc3ccccc3C(=O)O)C2=O)sc(C)c1C (configuration not stated),inactive,–
Cc1cc(-c2ccco2)c(C#N)c2nc3ccccc3n12,active: 2.82 µM,–
C=CCc1c(C)nc2cc(-c3ccc(C)cc3)[nH]n2c1=O,"inconclusive: 1 µM [activator, full curve, poor fit]",–
O=C(/C=C/Nc1ccc(Oc2ccccc2)cc1)c1ccco1,"inconclusive: 0.631 µM [activator, full curve, poor fit]",–
FC(F)(F)c1ccccc1Cc1c(-c2ccccc2)nc2ccc(Br)cn12,"inconclusive: 7.08 µM [activator, partial curve, poor fit]",–
COc1ccc(NC(=O)Cn2c(=O)n(-c3ccccc3)c(=O)c3c4c(sc32)CCCC4)cc1,inactive,–

Structure (SMILES),Potency,activation
O=C(CNS(=O)(=O)c1cccs1)Nc1ccc2c(c1)OCCO2,"inconclusive: 12.6 µM [activator, single point]",–
CCc1ccc(-c2ccc(C(=O)C(F)(F)F)[nH]2)cc1,"inconclusive: 3.98 µM [activator, partial curve, poor fit]",–
CCCN1CCC(=O)N([C@H](CSc2ccc(C)cc2)CC(C)C)CC1,"inconclusive: 7.08 µM [activator, full curve, poor fit]",–
C=CCN1N=C(/C=C/c2ccc(OC)cc2)CCC1=O,"inconclusive: 12.6 µM [activator, partial curve, poor fit]",–
O=c1c2sc(-c3ccccc3)cc2nc2n1CCC2,inactive,–
COc1ccc(CC2S/C(=N/N=C/c3ccccc3O)NC2=O)cc1 (configuration not stated),inactive,–
COCCn1c(C)cc(/C=C2/SC(=O)N(C(C)C(=O)OC)C2=O)c1C (configuration not stated),"inconclusive: 2.51 µM [activator, full curve, poor fit]",–
O=C(Nc1ccccc1)Nc1ccccn1,inactive,–
CC1=C(C(=O)Nc2ccccn2)C(c2ccc(N(C)C)cc2)n2ncnc2N1 (configuration not stated),"inconclusive: 20 µM [activator, single point]",–
CCOc1ccc(C(=O)NCC(C)C)cc1,"inconclusive: 15.8 µM [activator, partial curve, poor fit]",–
c1ccc(-n2ncc3c(NCc4cccnc4)ncnc32)cc1,"inconclusive: 11.2 µM [activator, partial curve, poor fit]",–
CN1c2ccccc2C(O)=C(C(=S)Nc2ccc(F)c(Cl)c2)S1(=O)=O,inactive,–
Fc1ccc(-c2nnc(CSc3nnc4ccccn34)o2)cc1,"inconclusive: 15.8 µM [activator, partial curve, poor fit]",–
CCOc1ccc2c(c1)ncn2Cc1ccccc1,"inconclusive: 12.6 µM [activator, partial curve, poor fit]",–
C=CCNC(=O)c1ccc(-c2cccc([N+](=O)[O-])c2)o1,"inconclusive: 11.2 µM [activator, partial curve, poor fit]",–
COC(=O)c1ccc(COc2ccccc2/C=C/C(=O)c2ccc(OCC(=O)O)cc2)cc1,inactive,–
Cc1ccc(SC[C@H](c2ccccc2)N2CCN(C)CCC2=O)cc1,"inconclusive: 17.8 µM [activator, partial curve, poor fit]",–
CC(C(=O)Nc1ccc2c(c1)OCO2)N(c1ccc(Cl)cc1)S(C)(=O)=O (configuration not stated),inactive,–
O=C(COC(=O)/C=C/c1ccccc1Cl)NCCc1ccc(Cl)cc1Cl,inactive,–
COc1c(OC(C)=O)ccc(/C=C/c2ccc3ccccc3n2)c1[N+](=O)[O-],"inconclusive: 3.16 µM [activator, partial curve, poor fit]",–
Cn1c(N)c(C(C[N+](=O)[O-])c2c(F)cccc2Cl)c(=O)n(C)c1=O (configuration not stated),inactive,–
CN(C(=O)c1cc(-c2ccccc2)on1)C1CCCCC1,active: 1.58 µM,–
O=C1c2ccccc2S(=O)(=O)N1CC1CC(c2ccc(Cl)cc2)=NO1 (configuration not stated),active: 3.16 µM,–
CC(=O)c1ccc(NC(=O)c2ccc3nc(C)sc3c2)cc1,"inconclusive: 3.98 µM [activator, partial curve, poor fit]",–
O=C(NCCc1ccccc1)c1ccc(NC(=O)C2CC2)cc1,"inconclusive: 11.2 µM [activator, partial curve, poor fit]",–
